# Reference: PubChem BioAssay AID686971 (National Center for Advancing Translational Sciences (NCATS), 2013)
# The whole screen tested about 360,000 compounds, of which about 7,500 (2.1%) were called active. Inconclusive results, whose numbers are uncertain, are shown with a selection of clear calls. Calls follow the shape of the dose curve; as a rule, active = well fitted cell-killing curve with a large enough effect; inconclusive = small, poorly fitted or top-dose-only effect, or effect the other way, or another doubt; inactive = no such curve, though single readings can be large or run the other way. Potencies of inconclusive entries are left out as doubtful fits.
# Experiment: qHTS for induction of synthetic lethality in tumor cells producing 2HG: qHTS for the HT-1080-IDH1KD cell line;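 as to activity, negative = toxicity: 0% = DMSO wells and -100% = cell-free medium wells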
# Conditions: HT-1080 IDH1 knockdown viability, ATP luminescence, 48 h; activity, negative = toxicity: at 46.1 µM (top of the series) unless noted
# Outline: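 Cytotoxicity counter-line: IDH1KD HT-1080, 48 h, CellTiter-Glo. Curves classed by r2, magnitude and activity.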
# Potency is read from the fitted curve at half-maximal effect; tags tell the direction and shape of the fitted curve.
Compound,Potency,"activity, negative = toxicity"
CN(C)S(=O)(=O)c1cccc(NC(=O)CSc2nc3ccccc3n2-c2ccccc2)c1,"inconclusive [cytotoxic, single point]",–
O=C(NCCCNc1ccc(C(F)(F)F)cc1[N+](=O)[O-])c1ccc(F)cc1,inactive,–
O=[N+]([O-])c1ccc(N2CCN(Cc3ccc4c(c3)OCO4)CC2)nc1,"inconclusive [cytotoxic, single point]",–
O=C(Cc1csc(NC(=O)Nc2cccc(Cl)c2)n1)NCc1ccccn1,inactive,–
CCc1ccc2nc(N(CCN(C)C)C(=O)/C=C/c3cccs3)sc2c1,"inconclusive [cytotoxic, single point]",–
O=S(=O)(CCOc1ccccc1)c1nc2ccccc2[nH]1,"inconclusive [cytotoxic, single point]",–
CCc1nc2c(OCC(=O)c3ccc(Cl)cc3Cl)cccn2c1N(C=O)Cc1ccc(OC)cc1,"inconclusive [cytotoxic, single point]",–
COCCSc1nnc(NC(=O)CSCc2ccccc2)s1,"inconclusive [cytotoxic, single point]",–
Cc1ccc(C2NC(=O)c3ccccc3N2)s1 (stereo unspecified),active: 14.6 µM,–
CC(NC(=O)C1CCCCC1)C(c1cccs1)N1CCN(C)CC1 (stereo unspecified),inactive,–
COc1cc(/C=C/C(=O)c2c(O)cc(C)oc2=O)cc(OC)c1O,"inconclusive [cytotoxic, single point]",–
Cc1[nH]c2ccccc2c1SCc1nnc(SCc2ccc(Cl)cc2)n1C,"inconclusive [cytotoxic, single point]",–
Cc1ccc(S(=O)(=O)Nc2nc3ccccc3nc2NCc2ccco2)cc1,active: 10 µM,–
CCn1c(CSc2nc(C)cc(C)n2)nnc1SCC(=O)Nc1cccc2ccccc12,inactive,–
CCN(C(=O)c1c([N+](=O)[O-])cnn1C)c1ccccc1,inactive,–
Cc1ccc2oc(C(=O)NCc3ccccc3)cc(=O)c2c1,inactive,–
O=C(c1cccnc1)N1CCCC(Nc2ccc(F)cc2)C1 (stereo unspecified),inactive,–
O=[N+]([O-])c1nn(-c2ccc3c(c2)OCCO3)n(O)c1=NC1CCN(Cc2ccccc2)CC1,inactive,–
O=C(Nc1nc(-c2cc3ccccc3o2)cs1)c1ccc(S(=O)(=O)N2CCCC2)cc1,"inconclusive [cytotoxic, partial curve]",–
CCN1CCN(c2ccc(NC(=O)c3cc4ccccc4cc3OC)cc2C)CC1,"inconclusive [cytotoxic, single point]",–
COC(=O)C1=C(C)NC(C)=C(C(=O)OC)C1c1ccc(-c2cc(Cl)ccc2Cl)o1,"inconclusive [rising, single point]",–
O=C(NCCCCCCNC(=O)c1ccc(Br)s1)c1ccc(Br)s1,"inconclusive [cytotoxic, single point]",–
C#Cc1ccc(NC(=O)C2(C)CCN2C(=O)CC(c2ccccc2)c2ccccc2)cc1 (stereo unspecified),"inconclusive [cytotoxic, single point]",–
O=C(c1ccc(C(F)(F)F)cc1)N1CCC(=O)N([C@H](COCc2ccc(Cl)cc2)Cc2ccccc2)CC1,"inconclusive [cytotoxic, single point]",–

Compound,Potency,"activity, negative = toxicity"
Cc1ccc(S(=O)(=O)N2CCOCC2)c2nsnc12,inactive,–
O=NNc1nc2ccccc2n1Cc1ccccc1,"inconclusive [cytotoxic, partial curve]",–
CCc1ccc(Nc2n[n+](-c3ccccc3)c(-c3ccc(OCc4ccccc4)cc3)s2)cc1,"inconclusive [cytotoxic, single point]",–
CC1=CC2(O)OCCN(CCO)C2=CC1=O (stereo unspecified),"inconclusive [cytotoxic, single point]",–
O=C(c1cc2cc(F)ccc2[nH]1)N1CCCC(Nc2ccc(F)cc2)C1 (stereo unspecified),"inconclusive [cytotoxic, partial curve]",–
COc1ccc(OC)c(Cc2nnc(CCC(=O)N3CCN(C4CCCC4)CC3)o2)c1,"inconclusive [rising, partial curve]",–
CCC(=O)Oc1ccc(C/C(=N\O)c2ccc(O)cc2O)o1,"inconclusive [cytotoxic, single point]",–
CC(C)(C)S(=O)N1Cc2cc(=O)n(Cc3ccccc3)c(CCO)c2[C@@H]1CCO (stereo partly specified),inactive,–
COc1ccc(OC)c(/C=N/NC(=O)c2cc3c(OC)cc(OC)cc3[nH]2)c1,"inconclusive [cytotoxic, partial curve, poor fit]",–
CC(c1ccccc1)N1C(=O)/C(=C/c2ccncc2)SC1=S (stereo unspecified),"inconclusive [cytotoxic, single point]",–
CCC/C=C/c1ccc(CN2C(C)C(=O)N(Cc3cn(CC4CCCCC4)nn3)CCS2(=O)=O)cc1 (stereo unspecified),inactive,–
Cc1nc(Nc2nc(CSc3nc4ccccc4[nH]3)cc(=O)[nH]2)nc2ccccc12,active: 4.61 µM,–
O=C(NC(c1ccccc1)c1ccc2ccccc2n1)C1CCN(Cc2ccc(Cl)c(Cl)c2)CC1 (stereo unspecified),"inconclusive [cytotoxic, single point]",–
O=C(Nc1cccc(F)c1)Nc1cccc(Cl)c1,"inconclusive [cytotoxic, single point]",–
CC(=O)Nc1ccc(OCC(=O)NCCc2ccccc2)cc1,–,inconclusive: 3.17% [cytotoxic]
Cc1ccc(C(C(=O)Nc2ccc3c(c2)OCO3)N(C)C(=O)Cc2c[nH]c3ccccc23)cc1 (stereo unspecified),"inconclusive [cytotoxic, single point]",–
Oc1ccccc1N=N/C(=N/Nc1ccccc1O)c1ccccc1,inactive,–
CCCCCCCCN1C(=O)[C@H](CC(=O)N2CCN(C(=O)OCC)CC2)C[C@@]2(C(=O)OC)CC(C)(C)CC=C12,"inconclusive [cytotoxic, single point]",–
FC(F)Sc1ccc(NC(=S)NCc2ccccc2)cc1,active: 20.6 µM,–
O=C(CSc1nnc(-c2cccnc2)n1Cc1ccco1)Nc1nc(-c2ccc(F)cc2)cs1,"inconclusive [cytotoxic, single point]",–
NC(Cc1ccc(C(F)(F)F)cc1)c1csc(Nc2ccccn2)n1 (stereo unspecified),"inconclusive [cytotoxic, partial curve]",–
COc1ccc(CNC(=S)NC(C)CCc2ccccc2)cc1 (stereo unspecified),inactive,–
COc1ccc(N=Cc2ccc(-c3ccccc3)o2)cc1,"inconclusive [cytotoxic, partial curve]",–
CN(CC(=O)Nc1ccc(Cl)cc1)C(=O)c1ccc(S(=O)(=O)Nc2ccccc2)cc1,active: 16.4 µM,–

Compound,Potency,"activity, negative = toxicity"
COc1cc(C(=O)Nc2ccc(S(=O)(=O)N3CCCCC3C)cc2)cc(OC)c1OC (stereo unspecified),"inconclusive [cytotoxic, single point]",–
COc1ccc(-c2oc3c(c2C#CC2(O)CCCCC2)C(OC)CCC3)cc1 (stereo unspecified),"inconclusive [cytotoxic, single point]",–
COc1ccc(CNC(=O)Nc2nc(C(N)Cc3ccc(C(F)(F)F)cc3)cs2)cc1 (stereo unspecified),"inconclusive [cytotoxic, single point]",–
CN(C(=O)CSc1nnc(NCc2ccccc2)s1)C1CCS(=O)(=O)C1 (stereo unspecified),–,inconclusive: 34.8%
COc1ccc(-c2ccc(C(=O)NCCN3CCOCC3)c3occc23)c(C)c1,active: 18.4 µM,–
CCNC(=O)C1(C)CCN1CCC(=O)c1ccc(C)cc1 (stereo unspecified),inactive,–
CCOC(=O)C1=C(N)Oc2cc(C)oc(=O)c2C1c1cccnc1 (stereo unspecified),–,inconclusive: -27.1% [cytotoxic]
CC(C)c1ccc(-c2cc(C(=O)N3N=C(C(F)F)CC3(O)C(F)F)c3ccccc3n2)cc1 (stereo unspecified),"inconclusive [cytotoxic, single point]",–
COc1ccccc1C(C)NC(=O)c1ccc(C)o1 (stereo unspecified),"inconclusive [cytotoxic, single point]",–
C=CCSc1nc(-c2ccc(OC)cc2)c(C#N)c(=O)n1CC=C,"inconclusive [cytotoxic, partial curve]",–
CCN=C1SC(CC(=O)NC(C)c2ccccc2)C(=O)N1CC (stereo unspecified),inactive,–
Cc1csc(N(C)C(=O)CSc2nnc(COc3ccccc3C)o2)n1,"inconclusive [cytotoxic, single point]",–
O=C(COC(=O)CCC(=O)c1cccs1)NC1CC1,inactive,–
O=C(COc1ccc2ccccc2c1)N[C@@H](C(=O)O)c1ccc(O)cc1,inactive,–
C#CCN1C(=O)C(O)(CC(=O)/C=C/C=C/c2ccccc2)c2ccccc21 (stereo unspecified),inactive,–
Cc1ccc(S(=O)(=O)NCCC(=O)NC(C)CCc2ccccc2)cc1 (stereo unspecified),inactive,–
Cc1onc(-c2ccccc2)c1-c1nnc(-c2ccccc2C(F)(F)F)o1,inactive,–
CC1CCc2nc3ccccc3c(C(=O)OCC(=O)NC3CCS(=O)(=O)C3)c2C1 (stereo unspecified),"inconclusive [cytotoxic, partial curve]",–
CNC(=S)/N=C/NOCc1ccc(Cl)cc1Cl,"inconclusive [cytotoxic, partial curve]",–
c1ccc2c(Nc3nc(-c4ccncc4)nc4ccccc34)cccc2c1,"inconclusive [cytotoxic, partial curve]",–
O=C(Nc1nc(-c2ccc(Cl)cc2)cs1)NC1CCCCC1,"inconclusive [cytotoxic, single point]",–
COc1ccc(N(CN2C(=O)C3C4C=CC(C4)C3C2=O)C(=O)c2ccco2)cc1 (stereo unspecified),inactive,–
COc1ccc(OC)c(C2CC(=O)OC3=C2C(=O)CC(C)(C)C3)c1 (stereo unspecified),"inconclusive [rising, single point]",–
